{
  "source": "the BET-seq Pho4 binding data (Le et al. 2018)",
  "note": "Some of the results follow. The energies were worked out here from pooled read counts, against the library average; single values are noisy.",
  "data": [
    {"target": "T1, Pho4 (S. cerevisiae) (UniProt P07270)", "T1 sequence": "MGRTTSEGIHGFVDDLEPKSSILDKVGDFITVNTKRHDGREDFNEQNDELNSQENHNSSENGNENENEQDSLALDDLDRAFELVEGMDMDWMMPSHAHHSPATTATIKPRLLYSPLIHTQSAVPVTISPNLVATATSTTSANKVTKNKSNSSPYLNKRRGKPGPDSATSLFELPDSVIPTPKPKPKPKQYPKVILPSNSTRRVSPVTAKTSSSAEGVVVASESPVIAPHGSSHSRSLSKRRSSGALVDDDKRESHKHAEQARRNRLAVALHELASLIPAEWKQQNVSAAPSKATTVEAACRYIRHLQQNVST", "experiment": "relative binding free energy (BET-seq); higher = weaker binding", "details": "reference: library average", "units": {"relative binding free energy": "kcal/mol"}, "values": [
      {"sequence": "GGAGGCACGTGCCGTG", "relative binding free energy": -0.2},
      {"sequence": "TTGAACACGTGATATT", "relative binding free energy": 0.14},
      {"sequence": "TTGATCACGTGTCGAG", "relative binding free energy": 0.15},
      {"sequence": "TGATACACGTGTAGAT", "relative binding free energy": 0.18},
      {"sequence": "AAAACCACGTGTGGGG", "relative binding free energy": 0},
      {"sequence": "AGATTCACGTGGCTTA", "relative binding free energy": 0.22},
      {"sequence": "GGGGACACGTGTGAGG", "relative binding free energy": 0.18},
      {"sequence": "CGTAGCACGTGTGTTT", "relative binding free energy": 0.02},
      {"sequence": "TGTGTCACGTGGTTAT", "relative binding free energy": 0.05},
      {"sequence": "GTTTGCACGTGGTAGA", "relative binding free energy": -0.11},
      {"sequence": "TGACGCACGTGGGATG", "relative binding free energy": -0.19},
      {"sequence": "TCTGTCACGTGTTATA", "relative binding free energy": 0.07},
      {"sequence": "CTGTGCACGTGGTTCG", "relative binding free energy": -0.23},
      {"sequence": "TGGCACACGTGGTGGC", "relative binding free energy": 0.09},
      {"sequence": "ATGGGCACGTGGGAAC", "relative binding free energy": -0.16},
      {"sequence": "AAATTCACGTGTTTCT", "relative binding free energy": 0.11},
      {"sequence": "GGTTGCACGTGTCAGG", "relative binding free energy": 0.19},
      {"sequence": "AATGGCACGTGTAGTA", "relative binding free energy": -0.09},
      {"sequence": "GGATTCACGTGTGCTA", "relative binding free energy": 0.29},
      {"sequence": "TAGGTCACGTGGCGCG", "relative binding free energy": 0.19},
      {"sequence": "TAATGCACGTGGCTGG", "relative binding free energy": -0.19},
      {"sequence": "GGTTCCACGTGTGAAG", "relative binding free energy": 0.27},
      {"sequence": "ATAGGCACGTGAGAGT", "relative binding free energy": 0.1},
      {"sequence": "TTGTTCACGTGGCACG", "relative binding free energy": 0.22},
      {"sequence": "CATGGCACGTGATTTT", "relative binding free energy": 0.05},
      {"sequence": "CGTGCCACGTGGGGTG", "relative binding free energy": -0.25},
      {"sequence": "ATTGCCACGTGTTTAG", "relative binding free energy": 0},
      {"sequence": "GGGCGCACGTGTACGG", "relative binding free energy": -0.06},
      {"sequence": "GCGAACACGTGGGTGT", "relative binding free energy": -0.14},
      {"sequence": "GGGTGCACGTGTGATT", "relative binding free energy": 0.12},
      {"sequence": "ACATGCACGTGTAGGT", "relative binding free energy": -0.06},
      {"sequence": "GGGGTCACGTGGGATG", "relative binding free energy": 0.02},
      {"sequence": "TGTTACACGTGTTTAC", "relative binding free energy": 0.13},
      {"sequence": "CATGTCACGTGTAGGG", "relative binding free energy": -0.08},
      {"sequence": "TCGTGCACGTGGGAGT", "relative binding free energy": -0.15},
      {"sequence": "AGGTGCACGTGTGCCG", "relative binding free energy": 0},
      {"sequence": "TATGACACGTGTTTGC", "relative binding free energy": 0.02},
      {"sequence": "TGAGGCACGTGGGCTT", "relative binding free energy": -0.25},
      {"sequence": "GTAGTCACGTGGGCGG", "relative binding free energy": 0.03},
      {"sequence": "TTACGCACGTGTTTAG", "relative binding free energy": -0.2},
      {"sequence": "TTGCACACGTGAATGT", "relative binding free energy": 0.38},
      {"sequence": "TGTTGCACGTGCTCTG", "relative binding free energy": -0.18},
      {"sequence": "GAGGTCACGTGGATTT", "relative binding free energy": 0.31},
      {"sequence": "TGTCTCACGTGGTGGT", "relative binding free energy": 0.16},
      {"sequence": "TGAATCACGTGGTAAG", "relative binding free energy": 0.24},
      {"sequence": "ACTGTCACGTGTATGT", "relative binding free energy": 0.02},
      {"sequence": "ATTAGCACGTGTAGGA", "relative binding free energy": 0.01},
      {"sequence": "ATTTACACGTGTTTTG", "relative binding free energy": 0.06},
      {"sequence": "GGCTCCACGTGGTTGT", "relative binding free energy": -0.14},
      {"sequence": "TTTGCCACGTGGGTGC", "relative binding free energy": -0.25},
      {"sequence": "TAATGCACGTGTCTGT", "relative binding free energy": 0.06},
      {"sequence": "TTTGACACGTGATAGA", "relative binding free energy": 0.14},
      {"sequence": "TAAATCACGTGTTGAG", "relative binding free energy": 0.1},
      {"sequence": "TTTCTCACGTGTTCTG", "relative binding free energy": 0.18},
      {"sequence": "GGGCTCACGTGATTAT", "relative binding free energy": 0.38},
      {"sequence": "AGTGTCACGTGACTTA", "relative binding free energy": 0.25},
      {"sequence": "GCGTCCACGTGGATGT", "relative binding free energy": 0.17},
      {"sequence": "GATTACACGTGGTGCG", "relative binding free energy": 0.26},
      {"sequence": "TTATGCACGTGCTAGA", "relative binding free energy": -0.06},
      {"sequence": "GGGCACACGTGGTGGA", "relative binding free energy": 0.27},
      {"sequence": "TGGCTCACGTGCAGGG", "relative binding free energy": 0.19},
      {"sequence": "GTTTTCACGTGGTCGA", "relative binding free energy": 0.09},
      {"sequence": "AAGAACACGTGAGGGG", "relative binding free energy": 0.34},
      {"sequence": "GTGGTCACGTGCTGTA", "relative binding free energy": 0.09},
      {"sequence": "CAGTTCACGTGTTGTG", "relative binding free energy": 0.25},
      {"sequence": "GTACTCACGTGGTTGT", "relative binding free energy": 0.1},
      {"sequence": "GGACACACGTGTAGGG", "relative binding free energy": 0.05},
      {"sequence": "TACATCACGTGGATGG", "relative binding free energy": 0.27},
      {"sequence": "TAAAGCACGTGGAGGG", "relative binding free energy": -0.1},
      {"sequence": "GTGAGCACGTGGGCGC", "relative binding free energy": -0.12},
      {"sequence": "TTTATCACGTGAGCTA", "relative binding free energy": 0.3},
      {"sequence": "CTAAGCACGTGTTGGG", "relative binding free energy": -0.08},
      {"sequence": "TTGTGCACGTGACTGG", "relative binding free energy": 0.1},
      {"sequence": "TACGGCACGTGACGGG", "relative binding free energy": 0.06},
      {"sequence": "ATTACCACGTGAGGGT", "relative binding free energy": 0.06},
      {"sequence": "TATGTCACGTGACGTG", "relative binding free energy": 0.11},
      {"sequence": "TGATGCACGTGCGATT", "relative binding free energy": 0.03},
      {"sequence": "TGGCTCACGTGGTAGT", "relative binding free energy": 0.18},
      {"sequence": "GCTTCCACGTGTGGTT", "relative binding free energy": 0.17},
      {"sequence": "AGGTACACGTGGCTGT", "relative binding free energy": -0.06},
      {"sequence": "GGAGACACGTGTTGGG", "relative binding free energy": 0.08},
      {"sequence": "GTTGACACGTGCTTGT", "relative binding free energy": -0.08},
      {"sequence": "TTCGTCACGTGGGTAG", "relative binding free energy": -0.11},
      {"sequence": "CTTTTCACGTGGTATG", "relative binding free energy": 0.14},
      {"sequence": "TTCATCACGTGTAATT", "relative binding free energy": 0.11},
      {"sequence": "TAGGGCACGTGGGCTA", "relative binding free energy": -0.22},
      {"sequence": "TTGGCCACGTGGAGTA", "relative binding free energy": -0.01},
      {"sequence": "AAGGGCACGTGGTACG", "relative binding free energy": -0.25},
      {"sequence": "AGGTTCACGTGGGAGT", "relative binding free energy": 0.18},
      {"sequence": "TCTATCACGTGGTCGG", "relative binding free energy": 0.18},
      {"sequence": "ATGGTCACGTGTTGGA", "relative binding free energy": 0.01},
      {"sequence": "ATGAGCACGTGAGGAG", "relative binding free energy": 0.15},
      {"sequence": "GTTAGCACGTGGGGCC", "relative binding free energy": -0.18},
      {"sequence": "AGAGTCACGTGTTCAG", "relative binding free energy": 0.09},
      {"sequence": "AGTTTCACGTGAGATG", "relative binding free energy": 0.44},
      {"sequence": "AGCGTCACGTGTAGTA", "relative binding free energy": -0.08},
      {"sequence": "GTCTTCACGTGATTAG", "relative binding free energy": 0.36},
      {"sequence": "CTGTGCACGTGTTGAG", "relative binding free energy": 0.03},
      {"sequence": "TCGTACACGTGGTGTC", "relative binding free energy": 0.05},
      {"sequence": "GTTGACACGTGTGGGG", "relative binding free energy": 0.06},
      {"sequence": "TTTAGCACGTGCAGGG", "relative binding free energy": -0.13},
      {"sequence": "GGCGTCACGTGTATAT", "relative binding free energy": 0.15},
      {"sequence": "AGATGCACGTGTGGGG", "relative binding free energy": -0.02},
      {"sequence": "GGTGGCACGTGCGCTG", "relative binding free energy": -0.05},
      {"sequence": "TTGTGCACGTGTTGAA", "relative binding free energy": -0.02},
      {"sequence": "TGTAGCACGTGGCCTG", "relative binding free energy": -0.16},
      {"sequence": "GGGCGCACGTGTAGGA", "relative binding free energy": -0.11},
      {"sequence": "AGCTGCACGTGCGGTA", "relative binding free energy": 0},
      {"sequence": "CAGGCCACGTGGGATG", "relative binding free energy": -0.08},
      {"sequence": "TGTAGCACGTGTTAAA", "relative binding free energy": 0.04},
      {"sequence": "ATTGGCACGTGGGCGA", "relative binding free energy": -0.28},
      {"sequence": "TAACGCACGTGGGGAG", "relative binding free energy": -0.2},
      {"sequence": "GTACTCACGTGGTGGT", "relative binding free energy": 0.16},
      {"sequence": "AAATGCACGTGTGATT", "relative binding free energy": 0.08},
      {"sequence": "AATATCACGTGGATAT", "relative binding free energy": 0.2}
    ]}
  ]
}
